Laboratory results reported in US20190367516A1 (Bayer Pharma Aktiengesellschaft, priority 2015, published 2019).

target: T1, human M2 receptor (Homo sapiens, UniProt P08172); conditions: M2-GIRK1/4 activation test; boosting of the acetylcholine effect at an EC20 acetylcholine concentration
T1 sequence (P08172 1-466): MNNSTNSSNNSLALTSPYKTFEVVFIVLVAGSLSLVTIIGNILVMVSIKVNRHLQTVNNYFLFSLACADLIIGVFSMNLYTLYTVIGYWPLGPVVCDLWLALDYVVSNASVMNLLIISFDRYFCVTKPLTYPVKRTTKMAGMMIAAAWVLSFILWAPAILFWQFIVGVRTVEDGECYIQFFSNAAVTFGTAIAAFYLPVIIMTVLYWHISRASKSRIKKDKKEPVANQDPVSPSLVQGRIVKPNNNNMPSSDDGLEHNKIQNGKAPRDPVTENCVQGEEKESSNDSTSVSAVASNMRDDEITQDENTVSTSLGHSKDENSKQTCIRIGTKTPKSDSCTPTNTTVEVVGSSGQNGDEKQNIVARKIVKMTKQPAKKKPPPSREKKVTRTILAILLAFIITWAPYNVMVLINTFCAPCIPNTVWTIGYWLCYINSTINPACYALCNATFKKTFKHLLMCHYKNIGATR

Compound	Efficiency
CC[C@@H](NC(=O)c1cn(-c2ccc(F)cc2F)c2nc(N3CCC(C)(OC)C3=O)ccc2c1=O)C(F)(F)F (single isomer, unassigned) [Example 199]	96.0%
O=C(N[C@H](c1ccccc1Cl)C(F)(F)F)c1cn(-c2ccc(F)cc2F)c2nc(N3CCCC(O)C3=O)ccc2c1=O (single isomer, unassigned) [Example 208]	97.5%
O=C(N[C@H](c1ccccc1Cl)C(F)(F)F)c1cn(-c2ccc(F)cc2F)c2nc(N3CCCC(O)C3=O)ccc2c1=O (single isomer, unassigned) [Example 209]	94.7%
O=C(N[C@H](c1ccccc1Cl)C(F)(F)F)c1cn(-c2ccc(F)cc2F)c2nc(N3CCCC(O)C3=O)ccc2c1=O (single isomer, unassigned) [Example 210]	93.5%
O=C(NC(c1ccccc1Cl)C(F)(F)F)c1cn(-c2ccc(F)cc2F)c2nc(N3C[C@@H](O)CC3=O)ccc2c1=O (single isomer, unassigned) [Example 213]	99.6%
CC(NC(=O)c1cn(-c2ccc(F)cc2F)c2nc(N3C[C@@H](O)CC3=O)ccc2c1=O)c1c(F)cccc1F (single isomer, unassigned) [Example 216]	100.0%
CC(COC(F)(F)F)NC(=O)c1cn(-c2ccc(F)cc2F)c2nc(N3CC[C@H](F)C3)ccc2c1=O (single isomer, unassigned) [Example 229]	100.0%
O=C(NC(c1c(F)cccc1F)C(F)(F)F)c1cn(-c2ccc(F)cc2F)c2nc(N3CC[C@H](F)C3)ccc2c1=O (single isomer, unassigned) [Example 243]	98.0%
O=C(NC(c1c(F)cccc1F)C(F)(F)F)c1cn(-c2ccc(F)cc2F)c2nc(N3C[C@@H](O)CC3=O)ccc2c1=O (single isomer, unassigned) [Example 246]	100.0%
O=C(NC(c1c(F)cccc1F)C(F)(F)F)c1cn(-c2ccc(F)cc2F)c2nc(N3CCCC(O)C3=O)ccc2c1=O (single isomer, unassigned) [Example 249, 1-(2,4-Difluorophenyl)-N-[1-(2,6-difluorophenyl)-2,2,2-trifluoroethyl]-7-[3-hydroxy-2-oxopiperidin-1-yl]-4-oxo-1,4-dihydro-1,8-naphthyridine-3-carboxamide]	89.0%
O=C(NC(c1c(F)cccc1F)C(F)(F)F)c1cn(-c2ccc(F)cc2F)c2nc(N3CCCC(O)C3=O)ccc2c1=O (single isomer, unassigned) [Example 250, 1-(2,4-Difluorophenyl)-N-[1-(2,6-difluorophenyl)-2,2,2-trifluoroethyl]-7-[3-hydroxy-2-oxopiperidin-1-yl]-4-oxo-1,4-dihydro-1,8-naphthyridine-3-carboxamide]	95.5%
O=C(NC(c1c(F)cccc1F)C(F)(F)F)c1cn(-c2ccc(F)cc2F)c2nc(N3CCCC(O)C3=O)ccc2c1=O (single isomer, unassigned) [Example 251, 1-(2,4-Difluorophenyl)-N-[1-(2,6-difluorophenyl)-2,2,2-trifluoroethyl]-7-[3-hydroxy-2-oxopiperidin-1-yl]-4-oxo-1,4-dihydro-1,8-naphthyridine-3-carboxamide]	100.0%

Now from value to molecule:

Efficiency	Compound
98.0%	CC[C@@H](NC(=O)c1cn(-c2ccc(F)cc2F)c2nc(N3CCC(C)(O)C3=O)ccc2c1=O)C(F)(F)F (single isomer, unassigned) [Example 196]
93.0%	CC[C@H](NC(=O)c1cn(-c2ccc(F)cc2F)c2nc(N3CCC(O)C3)ccc2c1=O)C(F)(F)F (single isomer, unassigned) [Example 220]
99.0%	CC[C@@H](NC(=O)c1cn(-c2ccc(F)cc2F)c2nc(N3CC4CNC(=O)C4C3)ccc2c1=O)C(F)(F)F (single isomer, unassigned) [Example 223]
100.0%	CC[C@@H](NC(=O)c1cn(-c2ccc(F)cc2F)c2nc(N3CCC(O)C3=O)ccc2c1=O)C(F)(F)F (single isomer, unassigned) [Example 226]

same assay, conditions: read-out: Efficiency, M2-GIRK1/4 activation test; boosting of the acetylcholine effect at an EC20 acetylcholine concentration

Compound	Emax
O=C(N[C@H](c1ccccc1Cl)C(F)(F)F)c1cn(-c2ccc(F)cc2F)c2nc(N3CCCC(O)C3=O)ccc2c1=O (single isomer, unassigned) [Example 207]	100%
O=C(NC(c1ccccc1Cl)C(F)(F)F)c1cn(-c2ccc(F)cc2F)c2nc(N3C[C@@H](O)CC3=O)ccc2c1=O (single isomer, unassigned) [Example 212]	99.4%
CC(NC(=O)c1cn(-c2ccc(F)cc2F)c2nc(N3C[C@@H](O)CC3=O)ccc2c1=O)c1c(F)cccc1F (single isomer, unassigned) [Example 215]	100%
CC(COC(F)(F)F)NC(=O)c1cn(-c2ccc(F)cc2F)c2nc(N3CC[C@H](F)C3)ccc2c1=O (single isomer, unassigned) [Example 228]	98.7%
O=C(NC(c1c(F)cccc1F)C(F)(F)F)c1cn(-c2ccc(F)cc2F)c2nc(N3CC[C@H](F)C3)ccc2c1=O (single isomer, unassigned) [Example 242]	96.7%
O=C(NC(c1c(F)cccc1F)C(F)(F)F)c1cn(-c2ccc(F)cc2F)c2nc(N3C[C@@H](O)CC3=O)ccc2c1=O (single isomer, unassigned) [Example 245]	98%
O=C(NC(c1c(F)cccc1F)C(F)(F)F)c1cn(-c2ccc(F)cc2F)c2nc(N3CCCC(O)C3=O)ccc2c1=O (single isomer, unassigned) [Example 248, 1-(2,4-Difluorophenyl)-N-[1-(2,6-difluorophenyl)-2,2,2-trifluoroethyl]-7-[3-hydroxy-2-oxopiperidin-1-yl]-4-oxo-1,4-dihydro-1,8-naphthyridine-3-carboxamide]	91.7%

Further lines, results first:

Emax	Compound
93%	CC[C@@H](NC(=O)c1cn(-c2c(F)cccc2F)c2nc(N3CC4CC4(O)C3)ccc2c1=O)C(F)(F)F (mixture of isomers) [Example 304, 1-(2,6-Difluorophenyl)-7-[1-hydroxy-3-azabicyclo[3.1.0]hex-3-yl]-4-oxo-N-[(2R)-1,1,1-trifluorobutan-2-yl]-1,4-dihydro-1,8-naphthyridine-3-carboxamide]
94.5%	CC[C@@H](NC(=O)c1cn(-c2c(F)cccc2Cl)c2nc(N3CC4CC4(O)C3)ccc2c1=O)C(F)(F)F (mixture of isomers) [Example 310, 1-(2-Chloro-6-fluorophenyl)-7-[1-hydroxy-3-azabicyclo[3.1.0]hex-3-yl]-4-oxo-N-[(2R)-1,1,1-trifluorobutan-2-yl]-1,4-dihydro-1,8-naphthyridine-3-carboxamide]
95%	C[C@H](NC(=O)c1cn(-c2c(F)cccc2F)c2nc(N3CC4CC4(O)C3)ccc2c1=O)C(F)(F)F (mixture of isomers) [Example 311, 1-(2,6-Difluorophenyl)-7-[1-hydroxy-3-azabicyclo[3.1.0]hex-3-yl]-4-oxo-N-[(2S)-1,1,1-trifluoropropan-2-yl]-1,4-dihydro-1,8-naphthyridine-3-carboxamide]
97%	C[C@H](NC(=O)c1cn(-c2c(F)cc(F)cc2F)c2nc(N3CC4CC4(O)C3)ccc2c1=O)C(F)(F)F (mixture of isomers) [Example 316, 7-[1-Hydroxy-3-azabicyclo[3.1.0]hex-3-yl]-4-oxo-1-(2,4,6-trifluorophenyl)-N-[(2S)-1,1,1-trifluoropropan-2-yl]-1,4-dihydro-1,8-naphthyridine-3-carboxamide]
95.5%	O=C(N[C@H](C1CC1)C(F)(F)F)c1cn(-c2c(F)cccc2F)c2nc(N3CC4CC4(O)C3)ccc2c1=O (mixture of isomers) [Example 319, N-[(1R)-1-Cyclopropyl-2,2,2-trifluoroethyl]-1-(2,6-difluorophenyl)-7-[1-hydroxy-3-azabicyclo[3.1.0]hex-3-yl]-4-oxo-1,4-dihydro-1,8-naphthyridine-3-carboxamide]
100%	CC1(O)CCN(c2ccc3c(=O)c(C(=O)NC(C4CC4)C(F)(F)F)cn(-c4c(F)cccc4F)c3n2)C1 (racemic) [Example 326, N-[1-Cyclopropyl-2,2,2-trifluoroethyl]-1-(2,6-difluorophenyl)-7-[3-hydroxy-3-methylpyrrolidin-1-yl]-4-oxo-1,4-dihydro-1,8-naphthyridine-3-carboxamide]
96.3%	CC[C@@H](NC(=O)c1cn(-c2ccc(F)cc2F)c2nc(N3CCC(C)(O)C3=O)ccc2c1=O)C(F)(F)F (single isomer, unassigned) [Example 195]
96%	CC[C@@H](NC(=O)c1cn(-c2ccc(F)cc2F)c2nc(N3CCC(C)(OC)C3=O)ccc2c1=O)C(F)(F)F (single isomer, unassigned) [Example 198]
97%	CC[C@H](NC(=O)c1cn(-c2ccc(F)cc2F)c2nc(N3CCC(O)C3)ccc2c1=O)C(F)(F)F (single isomer, unassigned) [Example 219]
100%	CC[C@@H](NC(=O)c1cn(-c2ccc(F)cc2F)c2nc(N3CC4CNC(=O)C4C3)ccc2c1=O)C(F)(F)F (single isomer, unassigned) [Example 222]
99.7%	CC[C@@H](NC(=O)c1cn(-c2ccc(F)cc2F)c2nc(N3CCC(O)C3=O)ccc2c1=O)C(F)(F)F (single isomer, unassigned) [Example 225]
